PubChem BioAssay AID504333 (National Center for Advancing Translational Sciences (NCATS), 2011)
Hit rate of the full screen: of about 360,000 compounds, about 16,000 (4.4%) were called active. The inconclusive results got no clear call from the source; some entries with a clear call stand among them for comparison. Calls come from the whole dose curve; as a rule, active = well fitted inhibition curve with a large enough effect; inconclusive = small, poorly fitted or top-dose-only effect; inactive = no such curve, though single readings can be large or run the other way. Potencies of inconclusive entries are doubtful fits and often do not repeat.

Target: Bromodomain adjacent to zinc finger domain protein 2B (Homo sapiens) (UniProt Q9UIF8)
UniProt Q9UIF8, sequence (Q9UIF8 whole entry, looked up, the tested form may be a part): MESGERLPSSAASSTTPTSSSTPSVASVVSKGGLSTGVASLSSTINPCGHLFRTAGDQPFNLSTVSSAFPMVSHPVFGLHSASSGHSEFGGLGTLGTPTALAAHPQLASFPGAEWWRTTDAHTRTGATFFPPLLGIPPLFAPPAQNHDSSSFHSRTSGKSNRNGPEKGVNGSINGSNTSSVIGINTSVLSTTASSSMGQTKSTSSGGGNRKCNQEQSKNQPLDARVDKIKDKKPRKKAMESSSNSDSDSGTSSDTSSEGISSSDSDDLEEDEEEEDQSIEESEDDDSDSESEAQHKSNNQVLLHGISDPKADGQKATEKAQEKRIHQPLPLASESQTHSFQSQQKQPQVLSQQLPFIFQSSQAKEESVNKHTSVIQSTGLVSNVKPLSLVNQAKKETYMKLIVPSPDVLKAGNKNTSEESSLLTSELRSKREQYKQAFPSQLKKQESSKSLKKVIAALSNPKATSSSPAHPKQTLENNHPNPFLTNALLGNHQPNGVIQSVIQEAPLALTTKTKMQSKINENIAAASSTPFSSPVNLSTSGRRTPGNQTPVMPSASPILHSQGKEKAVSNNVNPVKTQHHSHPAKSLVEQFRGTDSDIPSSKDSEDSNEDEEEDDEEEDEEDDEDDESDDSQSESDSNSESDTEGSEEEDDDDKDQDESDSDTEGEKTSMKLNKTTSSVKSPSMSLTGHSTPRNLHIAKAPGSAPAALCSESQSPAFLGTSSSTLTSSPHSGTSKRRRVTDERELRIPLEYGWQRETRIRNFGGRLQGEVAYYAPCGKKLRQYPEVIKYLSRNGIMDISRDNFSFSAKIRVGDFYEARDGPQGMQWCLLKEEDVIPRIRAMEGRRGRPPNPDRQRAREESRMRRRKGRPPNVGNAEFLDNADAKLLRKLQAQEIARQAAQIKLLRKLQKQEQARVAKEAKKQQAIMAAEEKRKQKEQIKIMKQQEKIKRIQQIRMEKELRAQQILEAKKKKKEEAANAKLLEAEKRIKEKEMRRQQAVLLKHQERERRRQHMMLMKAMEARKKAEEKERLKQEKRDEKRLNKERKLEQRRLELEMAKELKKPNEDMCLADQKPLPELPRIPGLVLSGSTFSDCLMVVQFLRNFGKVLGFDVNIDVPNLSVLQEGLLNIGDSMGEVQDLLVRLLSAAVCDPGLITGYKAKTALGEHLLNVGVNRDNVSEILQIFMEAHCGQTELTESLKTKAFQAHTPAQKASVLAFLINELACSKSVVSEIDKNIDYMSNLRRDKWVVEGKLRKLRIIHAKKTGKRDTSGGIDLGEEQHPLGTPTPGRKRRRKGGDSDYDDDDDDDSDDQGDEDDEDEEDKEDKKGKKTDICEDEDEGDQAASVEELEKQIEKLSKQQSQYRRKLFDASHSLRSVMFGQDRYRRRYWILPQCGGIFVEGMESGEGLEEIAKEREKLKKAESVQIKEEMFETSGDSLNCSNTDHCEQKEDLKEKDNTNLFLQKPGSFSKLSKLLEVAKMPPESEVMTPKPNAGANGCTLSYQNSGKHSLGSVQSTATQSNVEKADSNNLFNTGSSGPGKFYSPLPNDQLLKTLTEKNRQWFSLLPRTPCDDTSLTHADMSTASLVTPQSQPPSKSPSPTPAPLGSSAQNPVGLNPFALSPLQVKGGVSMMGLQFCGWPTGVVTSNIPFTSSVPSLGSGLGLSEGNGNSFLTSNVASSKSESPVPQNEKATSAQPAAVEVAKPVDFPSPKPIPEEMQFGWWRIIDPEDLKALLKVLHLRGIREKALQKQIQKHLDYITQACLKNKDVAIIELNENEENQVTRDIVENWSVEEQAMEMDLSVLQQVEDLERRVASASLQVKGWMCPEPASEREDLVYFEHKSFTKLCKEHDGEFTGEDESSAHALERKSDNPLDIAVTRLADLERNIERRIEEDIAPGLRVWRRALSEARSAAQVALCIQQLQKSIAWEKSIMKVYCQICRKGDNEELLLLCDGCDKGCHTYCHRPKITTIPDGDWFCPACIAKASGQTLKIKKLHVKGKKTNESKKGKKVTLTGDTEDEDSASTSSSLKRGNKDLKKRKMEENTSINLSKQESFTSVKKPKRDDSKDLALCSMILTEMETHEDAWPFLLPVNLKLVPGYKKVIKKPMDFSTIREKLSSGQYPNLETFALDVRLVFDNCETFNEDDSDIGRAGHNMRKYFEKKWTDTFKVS
Experiment: qHTS Assay for Inhibitors of BAZ2B; note: nearly all actives have a fitted effect of over 60% in size
Details: AlphaScreen BAZ2B-H3K14Ac peptide displacement; activity change, negative = inhibition: at 114 µM (top of the series) unless noted
Method in brief: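 BAZ2B (50 nM) with biotin-H3(5-23)K14Ac peptide (50 nM) in PBS pH 7.4, 0.01% Tween-20, preformed 30 min, then compound 30 min at room temperature; top concentration 110uM. AlphaScreen streptavidin donor/nickel chelate acceptor beads (10 ug/mL final), 20 min dark, signal read.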
% is set by controls: 0 for no effect and ±100 for the full control effect; potency is the fitted concentration of half-maximal effect; tags give direction and shape of the fitted curve.

| Compound | activity change, negative = inhibition | Potency |
| --- | --- | --- |
| CCOc1ccccc1N=c1oc2cc(O)ccc2cc1C(=O)NCC1CCCO1 (stereo unspecified) | inactive: -32.3% | – |
| O=C1CN(C(=O)c2ccc(Cl)cc2Cl)C(c2ccc(F)cc2)c2cc(F)ccc2N1 (stereo unspecified) | inactive: -15.3% | – |
| CN(C)c1ccc(C(CNC(=O)Cc2ccc(Cl)cc2)N2CCOCC2)cc1 (stereo unspecified) | – | inconclusive: 44.7 µM [inhibitor, partial curve] |
| NC(=O)c1cc([N+](=O)[O-])c(Cl)cc1NCc1ccccn1 | – | active: 79.4 µM |
| Cc1cc(/C=N\NC(=O)CC(=O)NC2CCCCC2)c(C)n1-c1ccc(Cl)c(Cl)c1 | – | inconclusive: 44.7 µM [inhibitor, partial curve] |
| O=C(Nc1c(F)cc(F)cc1Br)c1cc(S(=O)(=O)N2CCN(c3ccccn3)CC2)ccc1F | – | inconclusive: 79.4 µM [inhibitor, single point] |
| CCN1CCN(C(=O)c2ccc(Cl)c(S(=O)(=O)N(C)c3ccccc3)c2)CC1 | inactive: -0.84% | – |
| C=CCn1c(SC2CCOC2=O)nc2scc(C3CC3)c2c1=O (stereo unspecified) | – | inconclusive: 79.4 µM [inhibitor, single point] |
| CO/N=C(\Cn1ncc(N2CCCC2)c(Br)c1=O)c1ccc(Cl)cc1 | – | inconclusive: 89.1 µM [inhibitor, single point] |
| COc1ccc2c(CCNC(=O)/C=C/c3ccc(OC)c(OC)c3)c[nH]c2c1 | – | inconclusive: 89.1 µM [inhibitor, single point] |
| COc1cc(C2C(C(C)=O)=C(O)C(=O)N2CCc2c[nH]c3ccccc23)ccc1O (stereo unspecified) | – | inconclusive: 89.1 µM [inhibitor, single point] |
| CN(C)c1ccc(CNC(=O)c2cc3ccccn3n2)cc1 | – | inconclusive: 50.1 µM [inhibitor, partial curve] |
| O=C(Cc1ccccc1)N/N=C/c1ccc([N+](=O)[O-])s1 | – | inconclusive: 56.2 µM [inhibitor, partial curve] |
| Cc1ccc(Cl)cc1Nc1nc(-c2sc(NC(=O)c3cccc(Cl)c3)nc2C)cs1 | – | inconclusive: 50.1 µM [inhibitor, partial curve] |
| FC(F)(F)c1ccccc1NC(=S)N1CCN(Cc2ccc3c(c2)OCO3)CC1 | – | inconclusive: 70.8 µM [inhibitor, single point] |
| O=C(NCCc1ccccc1)c1ccc2c(c1)N(Cc1ccccc1)C(=O)c1ccccc1S2=O (stereo unspecified) | – | inconclusive: 35.5 µM [inhibitor, single point] |
| O=C(/C=C/c1ccc([N+](=O)[O-])cc1)Nc1cccc(C(=O)Nc2ccccc2C(=O)O)c1 | – | inconclusive: 79.4 µM [inhibitor, single point] |
| CC(C)(C)c1ccc(C(=O)Nc2nnc(C3=COCCO3)o2)cc1 | – | inconclusive: 89.1 µM [inhibitor, single point] |
| CCCCC1=CC2=C(c3ccco3)C(=O)C(C)(OC(=O)c3ccc(OC)cc3)C(=O)C2=CN1c1ccccc1 (stereo unspecified) | – | inconclusive: 35.5 µM [inhibitor, partial curve] |
| CC(C)Cn1c(-c2csc3c2CCCC3)n[nH]c1=S | – | inconclusive: 56.2 µM [inhibitor, partial curve, poor fit] |
| Cc1ccc(CNC(C)c2ccccc2)s1 (stereo unspecified) | inactive: 0.129% | – |

| Compound | activity change, negative = inhibition | Potency |
| --- | --- | --- |
| CCOc1ccc2c(c1)[C@@H]1C=CC[C@@H]1[C@H](c1ccccc1Cl)N2 | – | active: 28.2 µM |
| COc1ccc(NC2CCCN(C(=O)c3ccccc3C(F)(F)F)C2)cc1 (stereo unspecified) | – | inconclusive: 50.1 µM [inhibitor, partial curve] |
| O=c1oc(/C=C/c2ccc([N+](=O)[O-])s2)nc2ccccc12 | – | inconclusive: 79.4 µM [inhibitor, single point] |
| O=c1cc(-c2ccccc2Cl)oc2c(NS(=O)(=O)c3ccccc3C(F)(F)F)ccc(O)c12 | – | inconclusive: 56.2 µM [inhibitor, single point] |
| c1csc(-c2nnc(N3CCCCCC3)c3ccccc23)c1 | – | inconclusive: 89.1 µM [inhibitor, single point] |
| COc1cc(NC(=O)c2ccc3nsnc3c2)cc(OC)c1OC | – | inconclusive: 79.4 µM [inhibitor, single point] |
| COc1ccc(Nc2nc(N)c([N+](=O)[O-])c(NC3CCCCC3)n2)cc1 | – | inconclusive: 28.2 µM [inhibitor, full curve] |
| O=C(NC(=S)Nc1ccc(C(F)(F)F)cc1)c1csnn1 | – | inconclusive: 79.4 µM [inhibitor, single point] |
| COC(=O)CNC(=O)C1Cc2ccccc2CN1S(=O)(=O)c1ccc(F)cc1 (stereo unspecified) | – | inconclusive: 89.1 µM [inhibitor, single point] |
| CCOc1cc2sc(N3CCC(C(=O)Nc4ccc(C(C)C)cc4)CC3)nc2cc1Br | – | inconclusive: 70.8 µM [inhibitor, single point] |
| COC(=O)C1=C(C(=O)OC)SC(=C2C(=S)C(C)(C)N(C(=O)C3CC3)c3ccccc32)S1 | – | active: 8.91 µM |
| Cc1ccc(/C=C2\SC(=S)N(CCCC(=O)Nc3ccccc3C(=O)O)C2=O)cc1 | inactive: -33.3% | – |
| CC(=O)c1ccccc1Oc1nc(CN2CCOCC2)nc2scc(-c3cccs3)c12 | – | inconclusive: 39.8 µM [inhibitor, full curve, poor fit] |
| COc1ccc(C)c2sc(N(CCN(C)C)C(=O)/C=C/c3cccs3)nc12 | – | active: 35.5 µM |
| O=C(/C=C/c1cccc([N+](=O)[O-])c1)Nn1c(-c2ccccc2F)nc2ccccc2c1=O | – | inconclusive: 89.1 µM [inhibitor, single point] |
| CCOC(=O)C1CCN(c2cc3c(cc2NC(=O)c2ccc(OC)c(OC)c2)n(C)c(=O)n3C)CC1 | – | inconclusive: 79.4 µM [inhibitor, single point] |
| O=C1Nc2ccccc2N(O)N1c1ccc(Cl)cc1 | inactive: -17.5% | – |
| O=C(O)c1cccc(Nc2ncnc3ccccc23)c1 | – | inconclusive: 89.1 µM [inhibitor, single point] |
| CCOC(=O)c1cnc2ccccc2c1NCc1ccco1 | inactive: -0.234% | – |
| O=C(c1ccc(-c2ccc([N+](=O)[O-])cc2)o1)N1CCCCC1 | – | inconclusive: 89.1 µM [inhibitor, single point] |
